Common to all, as to assay: protein-binding microarray (PBM)
Settings in all cases: PBM: ~300 nM protein, 6 mM HEPES pH 7.8, 80 mM KCl, 0.5 mM EDTA, 0.5 mM EGTA, 6% glycerol, 35 ng/ul poly-dIdC, 1% milk, 1 h, room temperature; Ap Aiptasia and Nv Nematostella (sea anemones) / Co Capsaspora / Aq Amphimedon (sponge) / Dm Drosophila / Hu human; RHD is the Rel homology domain; high values mean tight binding; most listed sequences are background and not binding sites; double strand, one strand shown

The target in one experiment is T1, GST-Ap-NF-kB RHD (UniProt A0A913YAJ5).
T1 sequence: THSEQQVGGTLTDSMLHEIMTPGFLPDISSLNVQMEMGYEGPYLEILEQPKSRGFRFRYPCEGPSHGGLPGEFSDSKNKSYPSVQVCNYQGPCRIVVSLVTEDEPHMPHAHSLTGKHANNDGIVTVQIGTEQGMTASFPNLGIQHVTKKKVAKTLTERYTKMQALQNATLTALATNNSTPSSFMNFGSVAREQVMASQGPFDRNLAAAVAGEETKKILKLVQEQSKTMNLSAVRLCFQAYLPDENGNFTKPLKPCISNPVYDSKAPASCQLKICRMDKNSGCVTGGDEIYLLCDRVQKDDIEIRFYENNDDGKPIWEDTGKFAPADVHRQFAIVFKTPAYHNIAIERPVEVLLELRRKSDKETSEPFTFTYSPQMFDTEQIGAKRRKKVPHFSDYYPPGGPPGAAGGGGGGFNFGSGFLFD

The target of experiment [1] is T2, GST-Nv-NF-kB (Cys allele) (UniProt E5G601).
T2 sequence: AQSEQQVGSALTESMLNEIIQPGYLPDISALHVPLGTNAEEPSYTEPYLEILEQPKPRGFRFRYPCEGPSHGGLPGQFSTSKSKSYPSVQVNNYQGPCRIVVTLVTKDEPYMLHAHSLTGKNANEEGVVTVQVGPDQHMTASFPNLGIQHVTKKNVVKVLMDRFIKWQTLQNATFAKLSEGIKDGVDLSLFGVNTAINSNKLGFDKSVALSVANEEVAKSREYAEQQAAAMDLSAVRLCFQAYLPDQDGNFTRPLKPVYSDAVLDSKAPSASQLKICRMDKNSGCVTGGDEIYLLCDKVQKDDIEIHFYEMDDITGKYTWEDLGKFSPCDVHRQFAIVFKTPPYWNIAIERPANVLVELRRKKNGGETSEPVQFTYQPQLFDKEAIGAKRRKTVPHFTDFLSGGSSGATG

The next experiment has as its target T3, GST-Co-NF-kB (UniProt F1ARL5).
T3 sequence: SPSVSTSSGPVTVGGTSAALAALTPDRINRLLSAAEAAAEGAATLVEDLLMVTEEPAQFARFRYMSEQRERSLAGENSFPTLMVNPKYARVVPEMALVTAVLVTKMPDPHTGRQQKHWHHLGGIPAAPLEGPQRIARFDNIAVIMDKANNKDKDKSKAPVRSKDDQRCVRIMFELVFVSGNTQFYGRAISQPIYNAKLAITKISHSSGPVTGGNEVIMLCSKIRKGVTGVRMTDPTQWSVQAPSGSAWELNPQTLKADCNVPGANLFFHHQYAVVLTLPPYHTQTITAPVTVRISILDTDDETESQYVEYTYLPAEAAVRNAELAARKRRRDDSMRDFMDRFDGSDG

In another experiment the target is T4, GST-Dm-Relish (UniProt Q94527).
T4 sequence: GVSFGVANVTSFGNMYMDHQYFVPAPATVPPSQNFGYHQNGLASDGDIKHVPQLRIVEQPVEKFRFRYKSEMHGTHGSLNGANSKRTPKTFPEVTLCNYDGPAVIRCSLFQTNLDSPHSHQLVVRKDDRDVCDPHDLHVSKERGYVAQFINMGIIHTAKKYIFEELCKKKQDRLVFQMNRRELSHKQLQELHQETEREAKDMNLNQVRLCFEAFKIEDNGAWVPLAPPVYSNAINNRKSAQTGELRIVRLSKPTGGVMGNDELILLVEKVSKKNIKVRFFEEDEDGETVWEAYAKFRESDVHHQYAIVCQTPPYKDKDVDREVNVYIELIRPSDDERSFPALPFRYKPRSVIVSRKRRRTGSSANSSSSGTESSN

The next experiment has as its target T5, GST-Aq-NF-kB (UniProt A9Y5G7).
T5 sequence: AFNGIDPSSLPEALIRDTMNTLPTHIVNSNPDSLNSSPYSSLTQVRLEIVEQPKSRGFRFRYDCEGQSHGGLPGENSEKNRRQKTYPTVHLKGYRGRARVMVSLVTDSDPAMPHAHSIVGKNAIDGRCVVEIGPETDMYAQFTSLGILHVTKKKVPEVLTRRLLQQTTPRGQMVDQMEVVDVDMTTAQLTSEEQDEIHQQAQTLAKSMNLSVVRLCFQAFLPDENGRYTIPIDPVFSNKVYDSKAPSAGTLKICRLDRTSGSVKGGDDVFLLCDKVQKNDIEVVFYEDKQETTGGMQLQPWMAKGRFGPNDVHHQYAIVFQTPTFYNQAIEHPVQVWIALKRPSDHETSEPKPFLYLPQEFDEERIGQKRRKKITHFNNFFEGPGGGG

The list shows a part of the results, in another mix than the full data. The list includes weakly bound sequences.

Results on 14 sequences are retold here after article PMC5700166.

With “CCGATTAACATCAGGAAATACTATGATGTTAATCGGGTCTTGATTCGCTTGACGCTGCTG”, the binding signal with GST-Ap-NF-kB RHD is 0.29 z-score; in experiment [1] it was -0.104 z-score; with GST-Co-NF-kB, 0.595 z-score; in the experiment with GST-Dm-Relish it was 0.289 z-score; with GST-Aq-NF-kB, 0.341 z-score.

As to “CCGATTAACATCAACACGACAAGTGATGTTAATCGGGTCTTGATTCGCTTGACGCTGCTG”, the binding signal with GST-Ap-NF-kB RHD was -0.603 z-score; in experiment [1], -0.00521 z-score; with GST-Co-NF-kB, 0.39 z-score; in the experiment with GST-Dm-Relish, 0.0405 z-score; in the experiment with GST-Aq-NF-kB, -0.369 z-score.

As to “CCGATTAACATCATGGTTCAATTTGATGTTAATCGGGTCTTGATTCGCTTGACGCTGCTG”, the binding signal in the experiment with GST-Ap-NF-kB RHD was -0.266 z-score; in experiment [1], -0.324 z-score; in the experiment with GST-Co-NF-kB, -0.0646 z-score; in the experiment with GST-Dm-Relish it was -0.368 z-score; in the experiment with GST-Aq-NF-kB, -0.32 z-score.

For “CCGATTAACATCACGAATTTTCCTGATGTTAATCGGGTCTTGATTCGCTTGACGCTGCTG”, the binding signal with GST-Ap-NF-kB RHD is -0.0362 z-score; in experiment [1] it was 0.245 z-score; with GST-Co-NF-kB, 0.94 z-score; with GST-Dm-Relish, 0.17 z-score; with GST-Aq-NF-kB, 0.426 z-score.

Turning to “CCGATTAACATCACAGGCTTGCGTGATGTTAATCGGGTCTTGATTCGCTTGACGCTGCTG”, the binding signal with GST-Ap-NF-kB RHD is -0.697 z-score; in experiment [1] it was -0.1 z-score; with GST-Co-NF-kB, -0.562 z-score; with GST-Dm-Relish, 0.209 z-score; with GST-Aq-NF-kB, -0.889 z-score.

Take “CCGATTAACATCATGTGGCCTAATGATGTTAATCGGGTCTTGATTCGCTTGACGCTGCTG”: the binding signal was -0.342 z-score with GST-Ap-NF-kB RHD; -0.648 z-score in experiment [1]; -1.06 z-score in the experiment with GST-Co-NF-kB; -0.492 z-score in the experiment with GST-Dm-Relish; -0.222 z-score with GST-Aq-NF-kB.

Take “CCGATTAACATCACCAAATCAGATGATGTTAATCGGGTCTTGATTCGCTTGACGCTGCTG”: the binding signal in the experiment with GST-Ap-NF-kB RHD is 0.13 z-score; in experiment [1], -0.076 z-score; with GST-Co-NF-kB, 0.0465 z-score; with GST-Dm-Relish it was -0.00595 z-score; in the experiment with GST-Aq-NF-kB it was -0.0368 z-score.

For “CCGATTAACATCATAAGTCCTAGTGATGTTAATCGGGTCTTGATTCGCTTGACGCTGCTG”, the binding signal with GST-Ap-NF-kB RHD was 0.102 z-score; in experiment [1], 0.172 z-score; with GST-Co-NF-kB, -0.266 z-score; in the experiment with GST-Dm-Relish, -0.218 z-score; with GST-Aq-NF-kB, -0.054 z-score.

Regarding “CCGATTAACATCAGACCTGTGCCTGATGTTAATCGGGTCTTGATTCGCTTGACGCTGCTG”, the binding signal was 0.047 z-score with GST-Ap-NF-kB RHD; -1.07 z-score in experiment [1]; -1.16 z-score with GST-Co-NF-kB; -1.34 z-score in the experiment with GST-Dm-Relish; -0.555 z-score in the experiment with GST-Aq-NF-kB.

As to “CCGATTAACATCACAGATTTTCCTGATGTTAATCGGGTCTTGATTCGCTTGACGCTGCTG”, the binding signal with GST-Ap-NF-kB RHD was -0.206 z-score; in experiment [1] it was -0.0122 z-score; with GST-Co-NF-kB, 0.556 z-score; with GST-Dm-Relish, 0.117 z-score; with GST-Aq-NF-kB, 0.434 z-score.

As to “CCGATTAACATCACTCAACGGAATGATGTTAATCGGGTCTTGATTCGCTTGACGCTGCTG”, the binding signal with GST-Ap-NF-kB RHD is -0.425 z-score; in experiment [1] it was -1.04 z-score; with GST-Co-NF-kB it was -0.277 z-score; in the experiment with GST-Dm-Relish, -0.174 z-score; with GST-Aq-NF-kB, -0.135 z-score.

In the case of “CCGATTAACATCATAGTTATTTATGATGTTAATCGGGTCTTGATTCGCTTGACGCTGCTG”, the binding signal was -0.594 z-score with GST-Ap-NF-kB RHD; -0.255 z-score in experiment [1]; 0.0174 z-score with GST-Co-NF-kB; -0.078 z-score in the experiment with GST-Dm-Relish; -0.327 z-score with GST-Aq-NF-kB.

“CCGATTAACATCATATTCGTAGCTGATGTTAATCGGGTCTTGATTCGCTTGACGCTGCTG”: the binding signal is -0.599 z-score with GST-Ap-NF-kB RHD; -0.285 z-score in experiment [1]; 0.413 z-score with GST-Co-NF-kB; -0.379 z-score with GST-Dm-Relish; -0.404 z-score with GST-Aq-NF-kB.

For the sequence “CCGATTAACATCAAGCGAGTTCCTGATGTTAATCGGGTCTTGATTCGCTTGACGCTGCTG”, the binding signal is -0.418 z-score with GST-Ap-NF-kB RHD; -0.511 z-score in experiment [1]; 0.224 z-score in the experiment with GST-Co-NF-kB; -0.405 z-score with GST-Dm-Relish; -0.424 z-score in the experiment with GST-Aq-NF-kB.
